This is an account of results in ChEMBL document CHEMBL4888484, “Replenishing the malaria drug discovery pipeline: Screening and hit evaluation of the MMV Hit Generation Library 1 (HGL1) against asexual blood stage Plasmodium falciparum ,using a nano luciferase reporter read-out” (2022).

About 540 (0.36%) of roughly 150,000 compounds showed an effect of 50% or more. This is one part of the list.

The % Inhibition is the relative decrease from the control value, in per cent.

The test system of this test is Plasmodium falciparum. The test can be described thus: Primary screen in NF54 nanoGlo assay, in single point, at 2uM, 72h; a lower Z score goes with more inhibition. The format is functional, Erythrocyte. The note with it: timepoint 72 hour.
`c1csc([C@@H]2CN(c3ncnc4sccc34)CCO2)n1`: the “% Inhibition” value was 5% and the Z score is -0.74.
Turning to `Cc1ncsc1CN1CCC[C@@](F)(C(=O)NCC2CC2)C1`, the “% Inhibition” value is on record as -28% and the Z score is 2.51.
`O=C(NC(c1ccccc1)c1ccccc1)c1cccc2ccccc12`: the “% Inhibition” value is reported as -10% and the Z score was found to be 1.21.
For `Cc1cc(-c2cc(S(=O)(=O)N3CC(N4CCCCC4)C3)c(C)s2)[nH]n1`, in that order: -1% and 0.17.
With `CN1CCO[C@@H](CCNS(=O)(=O)N2CCc3ccccc3C2)C1`, the “% Inhibition” value is reported as -9% and the Z score is given as 1.43.
As for `CC(=O)N1CCC2(CC1)C[C@@H](C(=O)O)N(C(=O)c1ccc(C)c3ccccc13)C2`, the “% Inhibition” value is reported as -18% and the Z score was determined as 2.05.
Take `COCCN(Cc1ccsc1)Cc1cc2cc(C)ccc2n1C`: the “% Inhibition” value is -17% and the Z score is listed as 1.78.
Take `Cc1nc2ccc(NC(=O)N(C)Cc3cccc(F)c3)cc2s1`: the “% Inhibition” value worked out at 11% and the Z score is -1.48.
Take `CN(Cc1csc(-c2ccccc2)n1)C[C@]1(O)CNCCOC1`: the “% Inhibition” value is -5% and the Z score was 0.83.
Turning to `O=C(C1CC=CCC1c1nc(Cc2cccc(F)c2)no1)N1CCOCC1` (stereo unspecified), the “% Inhibition” value is on record as -3% and the Z score is on record as 0.53.
For the compound `O=c1nc(NC2CCN(Cc3ccccc3)CC2)cn[nH]1`, the “% Inhibition” value was determined as 3% and the Z score is listed as -0.4.
Consider `CN(C)S(=O)(=O)N1CC[C@@]2(CCCN(C3CCCCC3)C2=O)C1`, for which the “% Inhibition” value is given as -1% and the Z score is listed as 0.19.
Taken in the same sequence, the figures for `c1cc(OCC2CCCCC2)cc(-n2cncn2)c1` were -6% and 1.01.
Regarding `CCCN(Cc1c(C)nn(-c2cccc(F)c2)c1N1CCN(CC)CC1)C(=O)NC1CCCCC1`, the “% Inhibition” value was found to be 5% and the Z score is -0.63.
With `COCCN1CC[C@H](C(=O)Nc2ccccc2Cn2ccnc2C)C1`, the “% Inhibition” value is reported as -20% and the Z score came to 3.54.
In the case of `CC1CCC(NC(=O)CN(CC(=O)NC2CCC(C)CC2)S(C)(=O)=O)CC1` (stereo unspecified), the “% Inhibition” value is on record as 6% and the Z score is reported as -1.15.
Taken in the same sequence, the figures for `O=C1N[C@H](Cc2c[nH]c3ccccc23)C(=O)N1c1cncc(Br)c1` were -8% and 1.44.
`C=CCN(CC#Cc1ccccc1)C[C@H](O)CO`: the “% Inhibition” value is given as -15% and the Z score came out at 1.32.
As for `CCc1noc(C)c1CNC(=O)c1ccc(C2CC2)nc1O`, the “% Inhibition” value was -8% and the Z score worked out at 0.96.
`Cc1cccc(NS(=O)(=O)c2ccc3c(c2)-c2oncc2CO3)c1`: the “% Inhibition” value is given as -10% and the Z score is 0.98.
For `Cc1ccc(C)c(NS(=O)(=O)c2ccc(-c3cc(C(F)(F)F)on3)o2)c1`, in that order: -13% and 2.22.
For `COC[C@H]1CCCCN1C(=O)c1ccnc(C2CCCC2)n1`, in that order: 7% and -1.03.
With `Cc1cccc(Cn2c(=O)c(C(=O)NCCN3CCOCC3)nn(-c3ccc(C(C)C)cc3)c2=O)c1`, the “% Inhibition” value is -8% and the Z score is 1.12.
`COCc1ncc(C)n1CCNC(=O)CC1CCCC1`: the “% Inhibition” value turned out to be 0% and the Z score was 0.
`CC(C)[C@@H](C)NC(=O)c1cc(N(C)C2CCCCC2)nc2ccccc12`: the “% Inhibition” value was found to be 7% and the Z score is reported as -1.14.
Taken in the same sequence, the figures for `CCc1ccc(-c2c(-c3ccccc3)ncn2CCN2CCCC2=O)o1` were -7% and 1.09.
`CN(Cc1cccnc1)c1nc(N)nc2ccc(C(=O)O)cc12`: the “% Inhibition” value is reported as -8% and the Z score worked out at 1.24.
Turning to `CCN1CCCN(C(=O)c2ccc(-c3cc(C(C)=O)ccc3F)cc2)CC1`, the “% Inhibition” value is given as -9% and the Z score was determined as 1.75.
Regarding `c1cncc(CN2CC[C@H](c3nnc(-c4cccnc4)o3)C2)c1`, the “% Inhibition” value is given as -9% and the Z score was found to be 1.57.
For the compound `Cc1ccc(Br)cc1-c1noc([C@@H]2CN(C)CCO2)n1`, the “% Inhibition” value is -12% and the Z score is listed as 2.26.
Taken in the same sequence, the figures for `Cc1cc(C(=O)Nc2ccc(C)c(O[C@H]3CCOC3)c2)no1` were -3% and 0.27.
Taken in the same sequence, the figures for `Cc1noc(C)c1S(=O)(=O)NCc1cccnc1-n1cccn1` were -6% and 0.76.
For `CN(C)c1ccc([C@@H](CNC(=O)C2CCC2)c2c[nH]c3ccccc23)cc1`, the “% Inhibition” value was -5% and the Z score amounted to 0.69.
Taken in the same sequence, the figures for `O=C(c1ccccn1)N1CCN(Cc2cccs2)[C@@H]2CS(=O)(=O)C[C@@H]21` were -8% and 1.68.
With `CC(C)(C)[C@]1(C)NC(=O)N(CCOCC2CC2)C1=O`, the “% Inhibition” value was -9% and the Z score turned out to be 0.95.
Turning to `Cc1nnc(-c2ccc3ccn(CC(=O)Nc4cccnc4)c3c2)o1`, the “% Inhibition” value is reported as 9% and the Z score was -1.08.
For `C=CCNC(=O)CN(C[C@H](C)O)C1CCCCC1`, the “% Inhibition” value is 2% and the Z score is on record as -0.22.
For `COc1cccc(C2C(c3ccccc3)CCN2C(=O)CCC(=O)O)c1` (stereo unspecified), in that order: -8% and 1.45.
In the case of `O=C(Nc1ccncc1)c1nnn(-c2ccccc2)n1`, the “% Inhibition” value is recorded as -11% and the Z score is on record as 2.03.
With `CC(C)C(=O)N1CCCC(C(=O)N2CCC3C(CCCN3Cc3ccccc3)C2)C1` (stereo unspecified), the “% Inhibition” value is -1% and the Z score came to 0.27.
For `CCNC(=O)c1ccc(OC2CCN(C3CCCC3)CC2)c(OC)c1`, in that order: -19% and 1.88.
Take `Cc1ccc(C)c(-c2cc(C(=O)N(CCC(=O)N3CCCCC3)CC(C)C)no2)c1`: the “% Inhibition” value is -3% and the Z score was found to be 0.25.
As to `CCOC(=O)N1CCC(NC(=O)c2cc(C(=O)Nc3ccc(OCC)cc3)ccc2CO)CC1`, the “% Inhibition” value is reported as -6% and the Z score is recorded as 0.85.
Taken in the same sequence, the figures for `C[C@H](Nc1cccc(S(=O)(=O)N2CCCC2)c1)C(=O)Nc1ccc(N2CCCCC2)cc1` were -6% and 0.57.
With `CC(O)CC1CCCN1C(=O)Nc1cccc2cccnc12` (stereo unspecified), the “% Inhibition” value was -16% and the Z score is listed as 2.04.
With `C=CCOC[C@@H](O)CN(Cc1c(-c2ccccc2)noc1N1CCc2ccccc2C1)CC(C)C`, the “% Inhibition” value is listed as -8% and the Z score is on record as 1.06.
As for `CC(C)c1cc(CNS(=O)(=O)c2cc(F)c(F)c(F)c2)on1`, the “% Inhibition” value was -3% and the Z score is listed as 0.39.
Take `CC(C)[C@H](NC(c1ccccc1)(c1ccccc1)c1ccccc1)C(=O)n1ccnc1`: the “% Inhibition” value amounted to 0% and the Z score is on record as -0.05.
In the case of `CCC(NCC(C)(O)c1cnn(C)c1)c1ccccc1F` (stereo unspecified), the “% Inhibition” value came out at 5% and the Z score was -0.67.
As to `CCCc1nc2cc(CCC(=O)Nc3ccc(Cl)cc3C)ccc2[nH]1`, the “% Inhibition” value is on record as -2% and the Z score is recorded as 0.28.
As to `Cc1nn(-c2ccc(N3CCCC3)nn2)c(C)c1CCC(=O)NCc1ccco1`, the “% Inhibition” value was -17% and the Z score is on record as 3.32.
With `Cc1cc(=O)c(C(=O)N2[C@H](C)CC[C@H](C(=O)OC(C)(C)C)[C@@H]2C)c[nH]1`, the “% Inhibition” value is listed as -13% and the Z score turned out to be 1.36.
For `Cc1ccc(-c2nc(CNC(=O)[C@H]3CCCO3)[nH]c2-c2ccccn2)cc1`, in that order: -3% and 0.68.
